# Laboratory results reported in a collection of fitness landscapes (doi:10.1016/j.celrep.2020.107928).
# Over roughly 81,000 sequences, “one-hybrid fitness for binding NBS DNA” has its median near -0.1; the highest 2% begin near 0.36. Some of the results follow.
# B1: Caulobacter ParB omega fusion; a variant is named by its letters at X, in order, B8GW30 (parent)
# chain: MESVVVGEPGMSEGRRGLGRGLSALLGEVDAAPAQAPGEQLGGSREAPIEILQRNPDQPRRTFREEDLEDLSNSIREKGVLQPILVRPSPDTAGEYQIVAGERAWRAAQRAGLKTVPIMVRELDDLAVLEIGIIENVQRADLNVLEEALSYKVLMEKFERTQENIAQTIGKSXSHVANXMRLLXLPDEVQSYLVSGELTAXHARAIAAAADPVALAKQIIEGGLSVRETEALARKAPNLSAGKSKGGRPPRVKDTDTQALESDLSSVLGLDVSIDHRGSTGTLTITYATLEQLDDLCNRLTRGI
# Variants of: B1
# Test: one-hybrid fitness for binding NBS DNA (the Noc-binding site; scaled: cognate 1, non-cognate 0); higher = stronger binding
# Conditions: with NBS DNA site
# Method in brief: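 Fitness is the rescaled log change in variant-to-wild-type read ratio, measured by Illumina sequencing of plasmids before and after bacterial one-hybrid selection. The scale puts cognate at 1 and non-cognate at 0. Selection of Caulobacter ParB libraries, four specificity codons randomised, took place in E. coli USO with a HIS3 reporter, site 19 bp from the promoter, over 48 hours at 37°C on M9-minus-histidine with 0.1 mM IPTG and 5 mM 3-AT.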
row,Variant,one-hybrid fitness for binding NBS DNA
1,HSLS,≤ 0.2
2,NFST,≤ 0.2
3,ILRS,≤ 0.2
4,QLNI,≤ 0.2
5,RHCM,≤ 0.2
6,QKLY,≤ 0.2
7,LDPL,≤ 0.2
8,SAGY,≤ 0.2
9,ILFC,≤ 0.2
10,HIRE,≤ 0.2
11,TFQF,≤ 0.2
12,VKVG,≤ 0.2
13,HPYS,≤ 0.2
14,YWNT,≤ 0.2
15,KKIR,≤ 0.2
16,TLFE,≤ 0.2
17,QEWC,≤ 0.2
18,KYGR,≤ 0.2
19,SRWC,≤ 0.2
20,WKFI,≤ 0.2
21,KRFI,≤ 0.2

row,Variant,one-hybrid fitness for binding NBS DNA
1,LHET,≤ 0.2
2,LGRI,≤ 0.2
3,SMMW,≤ 0.2
4,SLGA,≤ 0.2
5,LVNS,≤ 0.2
6,QYPM,≤ 0.2
7,RKQL,≤ 0.2
8,HTSV,≤ 0.2
9,IYGL,≤ 0.2
10,YQTV,≤ 0.2
11,GDRR,≤ 0.2
12,CATD,≤ 0.2
13,GDVW,≤ 0.2
14,GGYR,≤ 0.2
15,KKRE,≤ 0.2
16,GFHR,≤ 0.2
17,SHCS,≤ 0.2
18,KVHC,≤ 0.2
19,HHNR,≤ 0.2
20,RLCS,0.334
21,EPTV,≤ 0.2

row,Variant,one-hybrid fitness for binding NBS DNA
1,QTPI,≤ 0.2
2,DNNG,≤ 0.2
3,RNIV,≤ 0.2
4,VRIC,≤ 0.2
5,TDIK,≤ 0.2
6,YQHC,≤ 0.2
7,GFTM,≤ 0.2
8,YLAP,≤ 0.2
9,GLPC,≤ 0.2
10,LRDF,≤ 0.2
11,KPMG,≤ 0.2
12,TYWG,≤ 0.2
13,HVGK,≤ 0.2
14,QWNR,0.304
15,DAEY,≤ 0.2
16,HPGM,≤ 0.2
17,GCVR,≤ 0.2
18,ERDR,≤ 0.2
19,WSHG,≤ 0.2
20,CTRE,≤ 0.2
21,RSDH,≤ 0.2

row,Variant,one-hybrid fitness for binding NBS DNA
1,ETWN,≤ 0.2
2,EIHV,≤ 0.2
3,SATQ,≤ 0.2
4,RQWL,≤ 0.2
5,RRWH,0.401
6,TMCR,≤ 0.2
7,LQQG,≤ 0.2
8,PYNN,≤ 0.2
9,HDHS,≤ 0.2
10,RSYP,≤ 0.2
11,REPR,≤ 0.2
12,LWKA,≤ 0.2
13,DMTE,≤ 0.2
14,LSSI,≤ 0.2
15,YAVT,≤ 0.2
16,TRFE,≤ 0.2
17,LEPR,≤ 0.2
18,LCIR,≤ 0.2
19,VAPI,≤ 0.2
20,RKTN,≤ 0.2
21,CTVL,≤ 0.2
